The whole screen tested about 310,000 compounds, of which about 14,000 (4.5%) showed an effect of 50% or more. The effect is printed as a negative number. The list shows a part of the results.
target: human ether-à-go-go-related gene (hERG) potassium channel (human, UniProt Q12809); assay: primary screen, population patch clamp on CHO cells stably expressing hERG
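Further: peak tail current of the secondary pulse compared with the same well before compound.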

Sequence of human ether-à-go-go-related gene (hERG) potassium channel (Q12809 whole entry, looked up): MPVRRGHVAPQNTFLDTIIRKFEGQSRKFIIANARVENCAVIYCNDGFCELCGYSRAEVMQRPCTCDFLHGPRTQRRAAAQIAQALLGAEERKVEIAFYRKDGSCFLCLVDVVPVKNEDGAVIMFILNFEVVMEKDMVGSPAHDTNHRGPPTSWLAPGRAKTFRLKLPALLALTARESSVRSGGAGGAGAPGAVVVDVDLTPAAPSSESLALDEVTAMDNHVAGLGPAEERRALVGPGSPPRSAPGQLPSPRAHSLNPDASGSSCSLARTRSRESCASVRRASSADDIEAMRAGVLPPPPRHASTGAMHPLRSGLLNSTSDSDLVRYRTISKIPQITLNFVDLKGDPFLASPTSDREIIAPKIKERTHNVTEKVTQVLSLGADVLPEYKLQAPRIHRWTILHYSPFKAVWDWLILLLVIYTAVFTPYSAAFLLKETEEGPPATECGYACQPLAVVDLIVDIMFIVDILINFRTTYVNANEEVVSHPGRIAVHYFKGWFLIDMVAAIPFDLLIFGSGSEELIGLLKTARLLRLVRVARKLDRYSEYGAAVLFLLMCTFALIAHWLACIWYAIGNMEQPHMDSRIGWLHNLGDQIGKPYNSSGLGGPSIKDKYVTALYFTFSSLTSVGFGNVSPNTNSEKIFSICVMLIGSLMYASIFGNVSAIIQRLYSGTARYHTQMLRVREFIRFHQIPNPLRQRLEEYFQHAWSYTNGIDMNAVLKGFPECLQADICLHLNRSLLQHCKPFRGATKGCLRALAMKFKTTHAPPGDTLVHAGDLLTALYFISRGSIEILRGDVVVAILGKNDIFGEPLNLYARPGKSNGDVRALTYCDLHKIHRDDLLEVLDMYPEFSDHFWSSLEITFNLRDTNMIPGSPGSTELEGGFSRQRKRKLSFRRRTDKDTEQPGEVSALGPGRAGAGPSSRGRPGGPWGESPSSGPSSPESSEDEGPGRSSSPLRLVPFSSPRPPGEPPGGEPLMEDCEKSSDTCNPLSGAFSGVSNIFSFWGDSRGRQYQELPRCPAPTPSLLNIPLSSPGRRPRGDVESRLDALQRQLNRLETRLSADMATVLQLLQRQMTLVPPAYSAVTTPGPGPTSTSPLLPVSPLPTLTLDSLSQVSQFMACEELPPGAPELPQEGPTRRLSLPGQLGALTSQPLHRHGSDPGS

In order of rising “hERG current change (%, negative = inhibition) at 10uM” value:
1. C=CCn1c(O)c(C=Nc2c(C)n(C)n(-c3ccccc3)c2=O)c(=O)[nH]c1=O  -81.6%
2. COc1ccccc1CNC(=O)C1CCN(Cc2nc(-c3cccc(Cl)c3)oc2C)CC1  -78%
3. CCOc1ccc(C2=CSC3=NCCN23)cc1[N+](=O)[O-]  -75.5%
4. COc1ccccc1NC(=O)CSc1nnc(-c2ccoc2C)n1CCc1ccccc1  -64.8%
5. Cc1ccc(OCCCCn2ccnc2)c([N+](=O)[O-])c1  -51.5%
6. Cn1nc(C(=O)NCc2ccc(F)cc2)c2c1-c1ccccc1S(=O)(=O)C2  -44.9%
7. Cc1cc(C)n(-c2ncc(-c3ccccc3)nn2)n1  -36.4%
8. Cc1c(C)n(Cc2ccc(F)cc2)c2ccc(C(=O)NCCCN3CCOCC3)cc12  -35.7%
9. Cc1ccc2oc(C(=O)NCC(c3ccco3)N3CCCC3)c(C)c2c1 (centres unmarked)  -33.8%
10. Cn1c(=O)cc(OCCCC(=O)NCCCN2CCN(Cc3ccccc3)CC2)c2ccccc21  -28.3%
11. Nc1c(C(=O)OCC2CCCO2)c2nc3ccccc3nc2n1Cc1cccs1 (centres unmarked)  -27.9%
12. CCCCN1CC[C@H]2C=CC[C@@H](C(=O)Nc3ccc(OC)cc3)[C@H]2C1=O  -26.1%
13. COc1ccc(NC(=O)Cn2c(-c3ccccc3)cc(C(C)=O)c2C)c(OC)c1  -22.6%
14. O=C(Nc1ccccc1OC(F)F)c1ccc(Br)o1  -20.9%
15. Cc1nnn(C23CC4CC(CC(CC(=O)Nc5cccc(F)c5)(C4)C2)C3)n1  -20.3%
16. CCCOc1ccc(OCCCCNC(C)CC)cc1.O=C(O)C(=O)O (centres unmarked)  -18.9%
17. CCOc1ccc(-c2cccc(NC(=O)c3ccco3)c2)nn1  -17.5%
18. COc1ccc(N2CCN(C(=O)c3ccc(Br)o3)CC2)cc1  -17%
19. O=C(NCc1ccc(F)cc1)C(=O)NCC1OCCCN1S(=O)(=O)c1cccs1 (centres unmarked)  -15.9%
20. O=C(CN1C(=O)CCSc2ccccc21)Nc1cccc(F)c1  -14.9%
21. COc1cc2nc(N3CCN(C(=O)OCc4ccccc4)[C@H](C(=O)NC(C)(C)C)C3)nc(N)c2cc1OC.O  -13.1%
22. Cc1cc(N2CCOCC2)cc(C)[n+]1[O-]  -12.6%
23. CCN(CC)CCN(C(=O)c1cc2ccccc2cc1OC)c1nc2ccc(F)cc2s1.Cl  -11.8%
24. CCCOc1ccc(/C=C/C(=O)N2CCN(c3ccccn3)CC2)cc1  -11.6%
25. COC(=O)CSc1nnc(-c2sc3cc(OC)ccc3c2Cl)n1C  -11.5%
26. C=CCn1c(COc2ccc(F)cc2)nnc1SCC(=O)NC1CCS(=O)(=O)C1 (centres unmarked)  -11.3%
27. COc1ccccc1OCCC(=O)OCCN1C(=O)c2ccccc2C1=O  -8.27%
28. O=C(CCC1CCCC1)NC1CCCCC1  -8.09%
29. COCCCNC(NC(=O)c1ccc(Br)cc1)C(Cl)(Cl)Cl (centres unmarked)  -7.58%
30. CCOc1ccccc1CN1CCNC(=O)C1CC(=O)NC1CCCCCCC1 (centres unmarked)  -7.18%
31. O=C(O)C1C2C=CC(C2)C1C(=O)NCc1ccc2c(c1)OCO2 (centres unmarked)  -6.95%
32. COc1ccc(/C=C/C(=O)O/N=C(\N)c2cccnc2)cc1OC  -5.84%
33. CC(=O)Nc1ccc(S(=O)(=O)Nc2nc(CN3CCOCC3)nc3sc4c(c23)CCCC4)cc1  -4%
34. Cc1ccccc1C(=O)NCCn1cc(SCC(=O)NCC2CCCO2)c2ccccc21 (centres unmarked)  -3.71%
35. CCOc1ccc(OCC(=O)N(CCC2=CCCCC2)c2c(N)n(Cc3ccccc3)c(=O)[nH]c2=O)cc1  -2.91%
36. O=S(=O)(Nc1ccc(O)c(CN2CCCCC2)c1)c1ccccc1  -2.35%
37. COC(=O)c1cc(NC2c3ccccc3C(=O)N2Cc2ccco2)cc(C(=O)OC)c1 (centres unmarked)  -1.56%
38. COc1cccc(C=Nc2cc(C)cc(C)c2)c1O  -1.33%
39. CCOC(=O)c1c(C)[nH]c(C(=O)CSc2nnc(CC(C)c3ccccc3)o2)c1C (centres unmarked)  -1.18%
40. O=C1OC(Nc2ccc(Cl)cn2)c2ccccc21 (centres unmarked)  -0.645%
41. Cn1c(N)c(C(=O)COC(=O)CCc2ccccc2)c(=O)n(C)c1=O  -0.0468%
42. CC(=O)O[C@H]1C[C@@]2(C)[C@@H](C[C@@H](O)[C@H]3[C@@]4(C)CC[C@@H](O)[C@@H](C)[C@@H]4CC[C@@]32C)/C1=C(\CCC=C(C)C)C(=O)O  0.478%
43. O=c1oc(-c2ccccc2Cl)nc2ccsc12  0.56%
44. NCCCN1CCOCC1  0.633%
45. O=S(=O)(NC1CCCCC1)c1ccc(F)c2ccccc12  0.801%
46. COc1cc(NC(=O)C2CC(=O)N(CCc3ccc(F)cc3)C2)cc(OC)c1OC (centres unmarked)  2.1%
47. COc1ccccc1/C=C1/C(=O)N(c2ccccc2)N=C1C  2.5%
48. COc1cccc(-c2cc(C(=O)N3CCCCC3C)no2)c1 (centres unmarked)  3.5%
49. COc1cc(-c2nc(-c3ccccn3)no2)cc(OC)c1OC  3.76%
50. O=C(Cc1ccc(Cl)cc1)Oc1cccc2cccnc12  3.96%
51. CCOc1ccccc1CNC(=O)C1CCCN(c2nnc(C)c3c(C)n(-c4ccccc4)nc23)C1 (centres unmarked)  4.08%
52. COC(=O)c1cn(CC(=O)N2CCCCC2C)c2ccccc12 (centres unmarked)  4.23%
53. CCOc1ncccc1C(=O)Nc1ccc(S(=O)(=O)NC2=NCCCCC2)cc1  4.47%
54. CCN1C(=O)CSc2ccc(C(=O)NCc3ccccc3)cc21  4.58%
55. COc1ccccc1-c1cc(C2CC2)nc(N)c1C#N  4.94%
56. CN(C)CCCN(C(=O)c1cc(-c2cccs2)nc2ccccc12)c1nc2ccc(F)cc2s1.Cl  5.59%
57. CCOc1ccc(C(=O)Nc2cccc(-c3cc4ccccc4oc3=O)c2)cc1[N+](=O)[O-]  6.3%
58. O=C(O)c1ccc(N2C(=O)CC(SC(=Nc3ccccc3)Nc3ccccc3)C2=O)cc1 (centres unmarked)  7.3%
59. N#C/C(=N\Nc1ccccc1F)c1nc(-c2ccccc2)cs1  7.51%
60. CC(C)(C)C(=O)O/N=C(\N)c1ccc(Br)cc1  7.57%
61. CN(C)c1ccc(-c2ccc([C@H]3[C@@H]4C=CCC[C@@]4(C)C(=O)N3Cc3ccccc3)c(F)c2)cc1  8.03%
62. CCNc1ccc2c(Cl)cc(=O)oc2c1  8.16%
63. CC1CCCCN1C(=O)c1cc2c(=O)n3ccccc3nc2s1 (centres unmarked)  8.32%
64. CCN(CC)C(=S)Nc1cc(C(=O)OC)ccc1C(=O)OC  9.5%
65. Cn1cc(CN2CCC(Oc3ccc(C(=O)N4CCCC4)cc3)CC2)cn1  9.86%
66. COC(=O)c1c(N)c2ccccc2[nH]c1=O  9.93%
67. COc1ccc(N(CC(=O)N2CC=C(c3ccccc3)CC2)S(=O)(=O)c2c(C)noc2C)cc1  10.1%
68. O=C(Nc1nc(-c2ccc(F)cc2)cs1)c1cccnc1  10.1%
69. Cc1ccc(NC(=O)COC(=O)c2cc(C)nc3ccccc23)c([N+](=O)[O-])c1  10.5%
70. CC(C)NC(=O)Cn1cnc2c(cnn2-c2ccc(F)cc2)c1=O  10.8%
71. COc1ccc(CCNC(=O)c2cc(C)oc2C)cc1  11.3%
72. COc1ccc(-c2cc(=O)c3cc(OC)ccc3o2)cc1  11.6%
73. CCC(=O)Nc1ccc(S(=O)(=O)Nc2ccc(Cl)nn2)cc1.Cl  11.7%
74. CCCCOc1ccc(-c2n[nH]c(=S)n2Cc2ccccc2)cc1  11.7%
75. N#Cc1ccc(S(=O)(=O)N2CCc3[nH]c4ccc(F)cc4c3C2)cc1  12.1%
76. Cc1ccc(-c2csc(N(CCO)CCCn3c(C(F)(F)F)nc4cc(C(F)(F)F)ccc43)n2)cc1  12.7%
77. CCOCCCNC(=O)COc1ccc(OC)cc1  13.2%
78. CCOC(=O)NC1C=CS(=O)(=O)C1 (centres unmarked)  13.8%
79. CC1=C(C)CC(C(=O)Nc2ccc(C(N)=O)cc2)C(C(=O)O)C1 (centres unmarked)  14.9%
80. CCN(CC)C(=O)c1cn(CCC#N)nc1-c1ccc2c(c1)OCCO2  15.7%
81. COc1cccc(NC(=S)N2CCC(NC(=O)C3CCCCC3)CC2)c1  17.6%
82. CC1(NC(=O)Cc2ccc(S(=O)(=O)N3CCOCC3)s2)CCS(=O)(=O)C1 (centres unmarked)  17.7%
83. O=C(/C=C/c1ccccc1)NCc1cccnc1  18.5%
84. CN(C(=O)NC1CCCCC1)c1ccccc1  19.8%
85. CCOC(=O)c1ccc(S(=O)(=O)NNC(=O)COc2ccc(C)cc2)cc1  20.7%
86. CC1CC(Nc2ccccc2)=NC1(C)C (centres unmarked)  21.1%
87. O=C(O)CCSc1nc2ccccc2n1Cc1ccccc1  24.1%
88. Cc1ccc(-c2n[nH]c(=S)n2/N=C/c2cccs2)cc1  24.6%
89. O=C(CN1C(=O)S/C(=C\c2cc(Cl)c(O)c(Cl)c2)C1=O)Nc1ccccc1  34.4%
